# According to publication PMC4336329 (PLoS ONE, 2015):
# Out of some 310,000 compounds screened, about 14,000 (4.5%) showed an effect of 50% or more. Effects have a minus sign here. This is one part of the list.
# Molecular target: human ether-à-go-go-related gene (hERG) potassium channel (human, UniProt Q12809)
# Assay: primary screen, population patch clamp on CHO cells stably expressing hERG
# 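Note: peak tail current of the secondary pulse compared with the same well before compound.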
# Sequence of human ether-à-go-go-related gene (hERG) potassium channel (Q12809 whole entry, looked up): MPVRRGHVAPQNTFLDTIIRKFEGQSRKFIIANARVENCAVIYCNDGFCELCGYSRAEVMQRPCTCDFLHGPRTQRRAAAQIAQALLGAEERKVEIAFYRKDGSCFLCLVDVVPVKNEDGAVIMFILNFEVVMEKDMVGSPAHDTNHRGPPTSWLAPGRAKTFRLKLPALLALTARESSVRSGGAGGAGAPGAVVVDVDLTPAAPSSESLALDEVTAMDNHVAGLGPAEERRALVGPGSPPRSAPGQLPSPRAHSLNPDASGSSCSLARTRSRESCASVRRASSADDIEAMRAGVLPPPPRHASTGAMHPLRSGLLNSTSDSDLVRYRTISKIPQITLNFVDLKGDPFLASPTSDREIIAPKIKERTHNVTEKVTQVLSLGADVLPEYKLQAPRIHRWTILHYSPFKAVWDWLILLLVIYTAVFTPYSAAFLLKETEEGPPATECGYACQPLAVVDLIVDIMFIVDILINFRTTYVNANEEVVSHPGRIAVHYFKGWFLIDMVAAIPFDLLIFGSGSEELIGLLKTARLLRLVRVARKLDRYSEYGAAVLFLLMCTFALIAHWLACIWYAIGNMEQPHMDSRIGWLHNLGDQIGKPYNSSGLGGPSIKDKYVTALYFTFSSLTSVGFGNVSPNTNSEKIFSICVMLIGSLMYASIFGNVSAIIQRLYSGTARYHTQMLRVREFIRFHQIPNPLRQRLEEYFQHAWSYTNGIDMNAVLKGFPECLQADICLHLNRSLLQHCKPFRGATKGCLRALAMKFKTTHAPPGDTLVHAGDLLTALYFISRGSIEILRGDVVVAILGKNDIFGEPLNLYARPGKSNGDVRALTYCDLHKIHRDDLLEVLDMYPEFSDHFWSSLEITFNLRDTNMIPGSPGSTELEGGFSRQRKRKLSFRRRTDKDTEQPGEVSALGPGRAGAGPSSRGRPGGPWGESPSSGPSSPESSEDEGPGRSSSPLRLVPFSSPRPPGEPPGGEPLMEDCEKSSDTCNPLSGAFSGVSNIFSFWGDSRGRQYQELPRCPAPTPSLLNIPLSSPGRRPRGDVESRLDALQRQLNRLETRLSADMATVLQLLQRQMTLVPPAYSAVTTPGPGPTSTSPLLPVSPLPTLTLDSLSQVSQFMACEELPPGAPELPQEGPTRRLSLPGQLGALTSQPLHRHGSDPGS
row,SMILES,"hERG current change (%, negative = inhibition) at 10uM [%]"
1,CCCC1(c2ccccc2)NC(=O)N(C/C=C/Cl)C1=O (centres unmarked),-8.22
2,Cc1cc(=O)oc2cc(Oc3ccc([N+](=O)[O-])cc3C(F)(F)F)ccc12,-15
3,O=C(c1ccc(=O)oc1)N1CCN(C(c2ccccc2)c2ccccc2)CC1,-32.2
4,Cc1ccc(C(=O)CNc2ccccc2)cc1,16.2
5,CCC(C)NC(=O)COC(=O)c1cc([N+](=O)[O-])ccc1Sc1nc(C)cs1 (centres unmarked),4.21
6,O=C(NCc1ccc(Cl)cc1)C1CCCN1C(=O)Nc1ccccc1 (centres unmarked),-30.6
7,COc1ccccc1CC(=O)NC12CC3CC(CC(C3)C1)C2,11.1
8,CN(C)C(CNS(=O)(=O)c1ccc(Cl)cc1)c1cccnc1 (centres unmarked),18.2
9,c1ccc(-c2cn3c(n2)-c2ccccc2C3)cc1,-2.81
10,CN(CC(=O)Nc1cccc(F)c1)C(=O)CN1C(=O)NC2(CCCC2)C1=O,-4.04
11,CC(C)(C)c1ccc(/C=N/NC(=O)Cc2c[nH]c3ccccc23)cc1,3.3
12,Cc1ccc(S(=O)(=O)N2CCC(NC(=O)c3cccc(C)c3)CC2)cc1,1.29
13,COc1cc2nc(N(C)CCCNC(=O)C3CCCO3)nc(N)c2cc1OC (centres unmarked),-17.7
14,O=S(=O)(c1ccc(Cl)cc1)n1cnc2ccccc21,17.5
15,CCCCCCCCN1[C@@H](CC(=O)OCC)c2ccc(C(F)(F)F)cc2S1(=O)=O,-10.9
16,O=C1/C(=C\c2ccc(O)cc2)SC(=S)N1/N=C/c1ccc(O)cc1,12.1
17,CCCOc1ccc(/C=N/NC(=O)c2c(-c3ccccc3)noc2C)cc1OC,-8.6
18,O=C(Cn1cnc2c(nnn2Cc2ccccc2F)c1=O)OCc1ccccc1,-13.7
19,COC(=O)NNC(=O)c1ccc(C)cc1,-29.9
20,Cc1ccc(S(=O)(=O)CC(=O)Nc2ccc(Cl)cn2)cc1,-18.6
21,CC(C)(C)OC(=O)N[C@H](C(=O)OC(C)(C)C)c1ccc(C(F)(F)F)cc1,6.05
22,CCCSc1nc(C)c(-c2csc(C(C#N)=C3CCCC3)n2)cc1C#N,-5.33

row,SMILES,"hERG current change (%, negative = inhibition) at 10uM [%]"
1,CCOP(=O)(OCC)C(NC(=O)Nc1ccc(Cl)cc1)c1ccccc1 (centres unmarked),-4.45
2,Cc1ccc(NC(=O)C2C3C=CC4(O3)C2C(=O)N(CCCN2CCOCC2)C4C(=O)NC2CCCCC2)cc1Cl (centres unmarked),7.6
3,COC(=O)[C@@H]1[C@@H](C)N(Cc2ccccc2)C(=O)N[C@H]1c1ccccc1,8.6
4,Cc1ccc(OCC(=O)N2CC(C)OC(C)C2)c([N+](=O)[O-])n1 (centres unmarked),-17
5,Cc1ccccc1NC(=O)COC(=O)c1ccc(CSc2ccc(Cl)cc2)cc1,6.49
6,NC(=O)NC(=O)COC(=O)CC12CC3CC(CC(C3)C1)C2,8.6
7,COc1ccccc1NC(=O)CSc1ccc(-c2ccco2)nn1,-21.6
8,CSc1nc2ccc(NC(=O)c3c(-c4ccccc4)noc3C)cc2s1,13
9,CN(CC(=O)Nc1cc(Cl)ccc1C#N)C1CCS(=O)(=O)C1 (centres unmarked),-8.06
10,S=c1[nH]nc(-c2cccs2)n1/N=C/c1cn(-c2ccccc2)nc1-c1ccc(Cl)cc1,-15.3
11,CCOC(=O)[C@H]1[C@H]2COc3ccc(Cl)cc3[C@@H]2N2C(=O)c3cc(F)ccc3NC(=O)[C@@]12C,0.562
12,CCCNC(=O)N1CCN(S(=O)(=O)c2ccc3c(c2)OCCO3)CC1,-0.0847
13,COc1ccc(S(=O)(=O)N2CCNCC2)cc1OC,12.3
14,CCOC(=O)C1=C(N)Oc2cc(O)ccc2C1c1ccc(Br)cc1 (centres unmarked),5.91
15,COc1ccc(S(=O)(=O)N2CC(O)CC2C(=O)OCC(=O)Nc2ccc(Cl)cn2)cc1 (centres unmarked),-41.8
16,Cc1csc(=O)n1CCC(=O)OCC(=O)NCc1ccc(F)cc1,4.46
17,Cc1cc(Cl)ccc1OCC(=O)NCCC(=O)O,14.6
18,CCOC(=O)c1cc(S(=O)(=O)Nc2ccc(OC)cc2OC)cn1C,2.59
19,COc1ccccc1N1CCN(C(=O)C(=O)c2cn(CC(=O)N3CCCCCC3)c3ccccc23)CC1,-8.58
20,COc1cccc(C(=O)NCCCNC(=O)c2ccco2)c1,5.39
21,Cc1cc(N2C(=O)C(=O)/C(=C(/O)c3ccc(Cl)cc3)C2c2cccc(Br)c2)no1 (centres unmarked),-4.41
22,Cc1cccc(C)c1NC(=O)CSc1nc(COc2ccccc2)nc2ccccc12,-8.72
